Data: PubChem BioAssay (Tox21)
“And” between values parts separate entries of the source, which are not always exact repeats. Equal values may be shown once. Inconclusive results, whose numbers are uncertain, are shown with a selection of clear calls. For some assays here: Where the call is inconclusive, the potency comes from a doubtful curve fit. The source made the active and inactive calls. Calls follow the shape of the dose curve; as a rule, active = well fitted curve in the direction sought with a large enough effect in the repeat runs; inconclusive = weak or mixed curves; inactive = no such curve, though single readings can be large; an effect the other way counts as inactive or inconclusive.

Key:
[1] = qHTS RealTime-Glo MT Cell Viability Assay in HepG2 cells - 40 hour (AID 1224870); settings: RealTime-Glo luminescence; series mostly up to 76.8 µM; also: nearly all actives have a fitted effect of over 50% in size; also: potency is read from the fitted curve at half-maximal effect
Summary of the method: (§1)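 HepG2 cells mixed with RealTime-Glo MT reagents (NanoLuc plus cell-permeant prosubstrate) were seeded at 600 cells/well, incubated 5 h at 37 C/5% CO2, then pinned with compounds in DMSO; nonlytic luminescence tracked viability during 40 h treatment.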

[2] = qHTS RealTime-Glo MT Cell Viability Assay in HEK293 cells - 16 hour (AID 1224872); settings: RealTime-Glo luminescence; series mostly up to 76.8 µM; also: nearly all actives have a fitted effect of over 50% in size; also: potency is read from the fitted curve at half-maximal effect
Summary of the method: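 Assay medium contained NanoLuc luciferase plus cell-permeant prosubstrate, added with HEK293 cells at 600 cells/well. After 5 h at 37 C/5% CO2 compounds were added; plates stayed at 37 C for 40 h with serial luminescence reads.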

[3] = qHTS RealTime-Glo MT Cell Viability Assay in HepG2 cells - 8 hour (AID 1224873); settings: RealTime-Glo luminescence; series mostly up to 76.8 µM; also: nearly all actives have a fitted effect of over 55% in size; also: potency is read from the fitted curve at half-maximal effect
Summary of the method: as §1

[4] = qHTS RealTime-Glo MT Cell Viability Assay in HEK293 cells - 40 hour (AID 1224874); settings: RealTime-Glo luminescence; max response: hits give low values; also: potency is read from the fitted curve at half-maximal effect; nearly all actives have a fitted effect of over 50% in size
Summary of the method: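 Luminescence readout at each listed time point; HEK293, 600 cells/well, RealTime-Glo MT reagent added with cells; compounds pinned (23 nL in DMSO) after 5 h at 37 C; continuous culture at 37 C.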

[5] = qHTS RealTime-Glo MT Cell Viability Assay in HepG2 cells - 32 hour (AID 1224877); settings: RealTime-Glo luminescence; series mostly up to 76.8 µM; also: potency is read from the fitted curve at half-maximal effect; nearly all actives have a fitted effect of over 55% in size
Summary of the method: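 qHTS, HepG2, 600 cells/well, RealTime-Glo (NanoLuc + prosubstrate) added with cells; 5 h preincubation; DMSO compound addition; 37 C; luminescence at 0/8/16/24/32/40 h.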

[6] = A CellTox Green Cytotoxicity Assay to monitor cytotoxicity in HEK293 cells - 40 hour (AID 1224871); settings: CellTox Green fluorescence; series mostly up to 76.8 µM; also: potency is read from the fitted curve at half-maximal effect; nearly all actives have a fitted effect of over 45% in size
Summary of the method: (§2)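 Read-out: fluorescence of a cell-impermeant cyanine dye staining DNA of dead cells, proportional to cytotoxicity. HEK293, 600 cells/well with reagent, compound (23 nL DMSO) added after 5 h; reads at 0, 8, 16, 24, 32, 40 h.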

[7] = A CellTox Green Cytotoxicity Assay to monitor cytotoxicity in HEK293 cells - 24 hour (AID 1224875); settings: CellTox Green fluorescence; series mostly up to 76.8 µM; also: nearly all actives have a fitted effect of over 45% in size; also: potency is read from the fitted curve at half-maximal effect
Summary of the method: as §2

[8] = A CellTox Green Cytotoxicity Assay to monitor cytotoxicity in HepG2 cells - 16 hour (AID 1224876); settings: CellTox Green fluorescence; series mostly up to 76.8 µM; also: nearly all actives have a fitted effect of over 45% in size; also: potency is read from the fitted curve at half-maximal effect
Summary of the method: (§3)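 HepG2, 600 cells/well premixed w/ CellTox Green; 5 h settle, 37 C/5% CO2; pintool cpd add (DMSO); 37 C, 40 h; fluorescence read at 0, 8, 16, 24, 32, 40 h.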

[9] = A CellTox Green Cytotoxicity Assay to monitor cytotoxicity in HepG2 cells - 40 hour (AID 1224879); settings: CellTox Green fluorescence; series mostly up to 76.8 µM; also: potency is read from the fitted curve at half-maximal effect; nearly all actives have a fitted effect of over 40% in size
Summary of the method: as §3

[10] = A CellTox Green Cytotoxicity Assay to monitor cytotoxicity in HepG2 cells - 24 hour (AID 1224878); settings: CellTox Green fluorescence; series mostly up to 76.8 µM; also: nearly all actives have a fitted effect of over 45% in size
Summary of the method: as §3
Tags tell the direction and shape of the fitted curve.

Question: Which results are given for C=CC(=O)OCC(C)OCC(C)OCC(C)OC(=O)C=C (centres undefined)?
Answer: Potency [1]: inconclusive: 54.9 µM [falling, single point]; Potency [2]: inconclusive: 49 µM [cytotoxic, partial curve]; Potency [3]: inconclusive: 4.9 µM [falling, full curve]; Potency [4]: active: 43.6 µM; Potency [5]: active: 54.9 µM

Question: Which Potency [1] does the source give for N#CCc1cccc(C(F)(F)F)c1 here?
Answer: inactive

Question: With CC(CCl)OC(C)CCl (centres undefined) as the molecule, how does the Potency [1] read?
Answer: inactive

Question: For O=C(NCc1ncc(C(F)(F)F)cc1Cl)c1c(Cl)cccc1Cl, which Potency [1] is on record?
Answer: inactive

Question: And the Potency [6]?
Answer: inconclusive: 43.6 µM [activator, partial curve, poor fit]

Question: And the Potency [2]?
Answer: inconclusive: 43.6 µM [cytotoxic, partial curve]

Question: Which Potency [1] does the source give for C=CC(=O)OCCOc1ccccc1 here?
Answer: inactive

Question: With NCCCN(CCO)CCO as the molecule, how does the Potency [1] read?
Answer: inactive

Question: Which Potency [1] does the source give for CCOC(=O)CC(=O)c1cc(F)c(Cl)nc1Cl here?
Answer: inactive

Question: And the Potency [6]?
Answer: inconclusive: 56.3 µM [activator, single point]

Question: What about the Potency [2] of the same molecule?
Answer: inconclusive: 56.3 µM [rising, partial curve, poor fit]

Question: And the Potency [4]?
Answer: inconclusive: 50.2 µM [rising, partial curve]

Question: What about the Potency [7] of the same molecule?
Answer: inconclusive: 63.2 µM [activator, single point]

Question: With CN(C)CCOC1=Cc2ccccc2Sc2ccc(Cl)cc21 as the molecule, how does the Potency [1] read?
Answer: inconclusive: 26.8 µM [falling, single point]

Question: And the Potency [6]?
Answer: inconclusive: 26.8 µM [activator, single point]

Question: What about the Potency [7] of the same molecule?
Answer: inactive

Question: What about the Potency [8] of the same molecule?
Answer: inconclusive: 26.8 µM [activator, single point]

Question: And the Potency [5]?
Answer: active: 21.3 µM

Question: Which Potency [1] does the source give for CCCCCCCC(OC)OC here?
Answer: inconclusive: 21.3 µM [rising, partial curve, poor fit]

Question: For CC(=O)[C@H]1CC[C@H]2[C@@H]3C[C@H](C)C4=CC(=O)CC[C@]4(C)[C@H]3[C@@H](O)C[C@]12C, which Potency [1] is on record?
Answer: inactive

Question: And the Potency [2]?
Answer: inconclusive: 26.8 µM [cytotoxic, partial curve]

Question: And the Potency [4]?
Answer: inconclusive: 23.9 µM [cytotoxic, partial curve]

Question: Which results are given for O=C(CCCN1CCC(O)(c2ccc(Br)cc2)CC1)c1ccc(F)cc1?
Answer: Potency [1]: inconclusive: 26.8 µM [falling, partial curve, poor fit]; Potency [2]: active: 9.52 µM; Potency [4]: active: 10.7 µM; Potency [8]: inconclusive: 23.9 µM [activator, single point]; Potency [5]: inconclusive: 23.9 µM [cytotoxic, partial curve, poor fit]; Potency [9]: active: 23.9 µM

Question: What does the source list for C=CCOc1cc(Cl)ccc1C(=O)NCCN(CC)CC?
Answer: Potency [1]: inactive; Potency [6]: inconclusive: 5.35 µM [activator, single point]; Potency [7]: inconclusive: 5.35 µM [activator, single point]

Question: Which results are given for OCc1cc(C(O)CNCCCCCCOCCCCc2ccccc2)ccc1O (centres undefined)?
Answer: Potency [1]: inconclusive: 26.8 µM [falling, single point]; Potency [6]: inconclusive: 26.8 µM [activator, single point]; Potency [2]: inconclusive: 9.52 µM [cytotoxic, partial curve]; Potency [4]: active: 23.9 µM; Potency [7]: inconclusive: 26.8 µM [activator, single point]; Potency [8]: active: 23.9 µM; Potency [5]: inconclusive: 26.8 µM [cytotoxic, single point]; Potency [9]: active: 23.9 µM

Question: With CC(C)(C)C1=CC(=O)C(C(C)(C)C)=CC1=O as the molecule, how does the Potency [1] read?
Answer: inconclusive: 19 µM [rising, partial curve, poor fit]

Question: And the Potency [6]?
Answer: inconclusive: 13.4 µM [activator, partial curve, poor fit]

Question: What about the Potency [2] of the same molecule?
Answer: inconclusive: 26.8 µM [cytotoxic, single point]

Question: And the Potency [4]?
Answer: inconclusive: 26.8 µM [cytotoxic, single point]

Question: And the Potency [8]?
Answer: inactive

Question: What about the Potency [10] of the same molecule?
Answer: inactive

Question: Which Potency [1] does the source give for CC(O)CN(CCCN(C)C)CCCN(C)C (centres undefined) here?
Answer: inactive

Question: Which Potency [1] does the source give for CC(=O)OC1CCCCC1 here?
Answer: inconclusive: 19.5 µM [rising, partial curve, poor fit]

Question: What about the Potency [3] of the same molecule?
Answer: inactive

Question: Which Potency [1] does the source give for O=C(OCCOCCOC(=O)c1ccccc1)c1ccccc1 here?
Answer: inactive

Question: What about the Potency [2] of the same molecule?
Answer: inconclusive: 48.9 µM [cytotoxic, single point] and inconclusive: 49 µM [cytotoxic, partial curve]

Question: What about the Potency [4] of the same molecule?
Answer: inconclusive: 49 µM [cytotoxic, partial curve, poor fit]

Question: Which Potency [1] does the source give for Cc1cncc(C)c1 here?
Answer: inactive

Question: And the Potency [6]?
Answer: inconclusive: 54.9 µM [activator, single point]

Question: And the Potency [2]?
Answer: inactive

Question: And the Potency [7]?
Answer: inconclusive: 54.9 µM [activator, single point]
